Assay results: paper PMC6919601, “Identification of Plasmodium dipeptidyl aminopeptidase allosteric inhibitors by high throughput screening” (PLoS ONE, 2019)
Hit rate of the full screen: of about 110,000 compounds, about 230 (0.21%) showed an effect of 50% or more. This is one part of the list.

Each compound was assayed against DPAP1 (Plasmodium falciparum, UniProt Q8IIJ9) (assay: primary screen, percent inhibition; read by cleavage of a fluorogenic dipeptide substrate; higher = more effect of the substance).
Sequence of DPAP1 (Q8IIJ9 whole entry, looked up): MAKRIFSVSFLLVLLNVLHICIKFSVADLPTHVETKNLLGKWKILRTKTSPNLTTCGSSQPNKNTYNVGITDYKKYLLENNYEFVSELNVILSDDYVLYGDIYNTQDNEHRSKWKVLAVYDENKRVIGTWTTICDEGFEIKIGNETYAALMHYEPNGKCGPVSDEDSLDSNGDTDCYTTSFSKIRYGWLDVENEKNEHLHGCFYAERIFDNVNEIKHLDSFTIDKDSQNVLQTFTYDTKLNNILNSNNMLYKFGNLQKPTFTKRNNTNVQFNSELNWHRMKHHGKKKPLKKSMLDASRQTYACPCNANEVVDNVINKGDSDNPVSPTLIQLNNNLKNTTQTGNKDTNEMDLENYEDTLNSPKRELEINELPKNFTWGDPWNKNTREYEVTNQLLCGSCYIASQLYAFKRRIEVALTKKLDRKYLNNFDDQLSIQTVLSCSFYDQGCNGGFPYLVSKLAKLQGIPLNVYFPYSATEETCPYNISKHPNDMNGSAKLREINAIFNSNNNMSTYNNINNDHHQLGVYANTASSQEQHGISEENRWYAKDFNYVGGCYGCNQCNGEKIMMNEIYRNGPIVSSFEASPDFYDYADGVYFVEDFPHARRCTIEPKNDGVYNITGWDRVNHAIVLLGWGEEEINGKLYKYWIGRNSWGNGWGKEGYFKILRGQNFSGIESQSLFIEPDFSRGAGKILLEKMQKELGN
Parameters: species or system P. falciparum D10 trophozoite lysates; single well
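Note: 30 min substrate incubation versus DMSO and 10 µM JCP410 controls.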

SMILES	% Inhibition @ 10 uM
COc1ccc(-c2nc3n(n2)C(c2cccc(O)c2)C(C(=O)Nc2cccnc2)=C(C)N3)cc1 (centres unmarked)	0.275%
Clc1ccccc1N1N=C(c2ccccc2)CC1c1ccc(Br)cc1 (centres unmarked)	-3.92%
COc1ccc(-c2cc(C(=O)NCCN3CCOCC3)c3ccccc3n2)cc1	-6.04%
O=C(Nc1cnn(Cc2ccc(Cl)cc2)c1)C1CCCCC1	-1.88%
Cc1ccc(Cn2ncn3c(cc4ccccc43)c2=O)cc1	-3.34%
COc1ccc(C(=O)c2sc3nc(C)cc(-c4cccs4)c3c2N)cc1	12%
O=C1S/C(=C/c2ccccc2)C(=O)N1CC(O)Cn1c2ccccc2c2ccccc21 (centres unmarked)	-2.27%
O=C(Nc1cccc(Cl)c1)Nc1ccc(F)c(Cl)c1	2.74%
COc1cccc(/N=C2\SC(C(=O)Nc3ccccc3OC)CC(=O)N2C)c1 (centres unmarked)	2.08%
O=C(Nc1cccc(O)c1)c1ccc(Oc2cccc(C(=O)Nc3cccc(O)c3)c2)cc1	10.3%
CC(C)(C)OC(=O)N1CCC(c2c(C(=O)N3CCOCC3)cnn2-c2cccc(Cl)c2)CC1	1.06%
O=C1CNC(c2ccccc2)c2cc(Br)ccc2N1 (centres unmarked)	1.7%
Cc1sc(NC(=O)c2cccnc2)c(C(=O)c2ccc(Br)cc2)c1C	4.11%
O=C(CC1(c2ccccc2)C(=O)c2ccccc2C1=O)Nc1ccccc1	0.132%
N#CCNC(=O)[C@H](CC1CCCCC1)NC(=O)c1cccc(C(=O)OCc2ccccc2)c1	-1.83%
OCC1OC(Oc2cccc3ccccc23)C(O)C(O)C1O (centres unmarked)	-2.02%
COc1cc(OC)cc(C(=O)Nc2nc(-c3nnn(-c4cc(OC)ccc4OC)c3C)ns2)c1	-9.88%
OCCN(CCO)Cc1ccc(F)cc1F	-0.0908%
Cc1cc(=O)n2nc(N3CCCC(C(=O)N4CCC(Cc5ccccc5)CC4)C3)sc2n1 (centres unmarked)	-0.281%
Cc1c(C(=O)N2CCOCC2)[nH]c2c1C(=O)CC(c1ccccc1Cl)C2 (centres unmarked)	-5.2%
Cc1ccc(OCC(O)CN(CCO)CCO)cc1 (centres unmarked)	-0.386%
CCOC(=O)N1CCN(C(=O)c2ccc(CN3CCc4ccccc4C3)cc2)CC1	-0.0626%
CC(=O)C[C@H]1[C@](C)(OC(C)=O)CCC2C(C)(C)CCC[C@@]21C (some centres unmarked)	-1.85%
CCCCC(=O)NC1(C(F)(F)F)C(=O)N(Cc2ccco2)C(C)=C1C(C)=O (centres unmarked)	2.31%
O=S(=O)(c1ccc(-c2csc(-c3ccccc3)n2)cc1)N1CCOCC1	3.66%
Cc1nc(Cl)c(C(=O)N(C)Cc2ccccc2)c(C)c1Cl	3.49%
